# Data taken from PubChem BioAssay AID686978 (National Center for Advancing Translational Sciences (NCATS), 2013).
# Values joined by “and” are separate entries in the source; they are usually repeats but may differ in a detail not shown here. Identical values can stand only once. The campaign covered roughly 420,000 compounds. About 64,000 (15%) were called active. Inconclusive means that the source gave no clear call. Such entries were picked first, then a sample of the others. The call rests on the fitted dose curve; in most records, active means well fitted inhibition curve with a large enough effect; inconclusive means small, poorly fitted or top-dose-only effect; inactive means flat fitted curve, though single readings scatter. Potencies of inconclusive entries are left out as doubtful fits. Some compounds were tested as several samples or in several runs, with calls that do not always agree.
# Test: qHTS for Inhibitors of human tyrosyl-DNA phosphodiesterase 1 (TDP1): qHTS in cells in absence of CPT; further: nearly all actives have a fitted effect of over 55% in size
# Settings: DT40 Tdp1-/- hTDP1 cells, no CPT, ATP luminescence, 48 h; activity change, negative = growth inhibition: at 46.2 µM (top of the series) unless noted
# In short: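 Chicken DT40 Tdp1-/- cells complemented with human TDP1, screened without camptothecin (DMSO vehicle only), 400 cells/well. Compounds pin-transferred, cells incubated at 37 °C for at least 48 hr. Growth read as ATP-dependent luminescence (CellTiter-Glo, 30 min at RT).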
# On the % scale 0 is the no-effect control and ±100 the full control effect; potency means the concentration at half of the fitted maximal effect; tags describe the fitted curve by direction and shape.
Structure (SMILES),"activity change, negative = growth inhibition",Potency
Nc1c(C(=O)NCc2ccc3c(c2)OCO3)nnn1CC(=O)Nc1ccc(Br)cc1,inconclusive: -32.6% [inhibitor],–
O=C(Nc1ccccc1Cl)C1CCN(Cc2cnn(-c3ccccc3)c2-n2cccc2)CC1,–,active: 23.1 µM
Cc1ccc(C)c(NS(=O)(=O)c2c(C)ccc3nsnc23)c1,–,"inconclusive [inhibitor, full curve, poor fit]"
Cc1cccc(C)c1OCC(=O)N1CCC(c2nc3ccccc3o2)CC1,–,"inconclusive [inhibitor, single point]"
COc1ccc(Cl)cc1NC(=O)CSc1nc(C)cc(C)n1,–,"inconclusive [inhibitor, full curve, poor fit]"
CC(=O)N1CCN(S(=O)(=O)c2cccc(C(=O)Nc3ccc4c(c3)CCC4)c2)CC1,–,"inconclusive [inhibitor, single point]"
CC(=O)N1CCCc2cc(S(=O)(=O)N3CCCC(C(=O)NCc4ccccc4)C3)ccc21 (stereo unspecified),–,inactive and active: 25.9 µM
Cc1cccc(NC(=O)CSc2cn(CC(=O)N3CCCC3)c3ccccc23)c1C,–,"inconclusive [inhibitor, single point]"
Cc1cc(OCC(=O)NCc2ccccn2)c2c(C)c(Cc3ccccc3)c(=O)oc2c1,–,"inconclusive [inhibitor, single point]"
COc1cccc(NC(=O)c2nc(S(C)(=O)=O)ncc2Cl)c1,–,active: 0.651 µM
CCc1ccc(-c2cc(C)no2)cc1S(=O)(=O)Nc1ccc(Cl)cn1,–,inactive
Cc1nc(-c2nnc(SCC(=O)Nc3cc(C(F)(F)F)cc(C(F)(F)F)c3)n2C)cs1,–,"inconclusive [inhibitor, single point]"
Cc1ccc(Cn2cc(C(=O)c3ccc(C)cc3)c(=O)c3ccc(C)nc32)cc1,–,"inconclusive [inhibitor, single point]"
COc1ccc(N(CC(=O)NCCSc2ccccn2)S(=O)(=O)c2ccccc2)cc1Cl,–,"inconclusive [inhibitor, single point]"
COc1ccc(C(=O)NNC(=O)CN2CCC(n3nnc4cc(F)ccc43)CC2)cc1,–,inactive
Cc1ccc(NC(=O)CNc2ccc(Cl)cc2F)cc1,–,inactive
CC(C)(C)Cc1c(-c2cccc(Br)c2)nc2ccc(Br)cn12,–,"inconclusive [inhibitor, single point]"
Cc1cc(SCC(=O)Nc2ccc(Cl)cc2)nc2ccccc12,inconclusive: -31.9% [inhibitor],–
COc1cccc(-c2noc(CCCC(=O)Nc3ccc(C(N)=O)cc3)n2)c1,–,"inconclusive [inhibitor, single point]"
O=c1c(-c2cccs2)nc2cncnc2n1C1CC1,–,inactive
Cc1cccc(N2CCN(C(=O)C3CCN(Cc4nc(-c5ccc(Cl)cc5)oc4C)CC3)CC2)c1C,–,"inconclusive [inhibitor, single point]"
O=C(NCc1cccnc1)C(=O)NCC(c1ccco1)N1CCN(c2ccccc2)CC1 (stereo unspecified),–,"inconclusive [inhibitor, single point]"
Cc1ccc(CSCc2nnc(SCC(=O)N3CCN(c4ccccc4)CC3)n2C)cc1,–,active: 16.4 µM
COc1ccc(N2CCN(C(=O)CSc3nnnn3-c3ccc4c(c3)OCCO4)CC2)cc1,–,"inconclusive [inhibitor, single point]"

Structure (SMILES),"activity change, negative = growth inhibition",Potency
C=C1NN(Cc2ccccc2)C(=O)N1c1ccc(OCc2ccccc2)cc1,–,active: 11.2 µM
COc1ccc(-n2nnnc2SCC(=O)NCc2cccs2)cc1,–,inactive
COc1ccc(C(=O)/C=C/c2ccc(F)cc2)c(OC(=O)c2ccc([N+](=O)[O-])cc2)c1,–,active: 20.6 µM
COC(=O)c1cc(S(=O)(=O)NCc2ccccc2)c[nH]1,–,inactive
c1ccc(Cn2c(-c3ccccc3)c[n+]3c2SCCC3)cc1,–,active: 2.31 µM
CCOc1ccccc1-n1c(CN2CCN(C(=O)c3ccco3)CC2)nc2ccccc2c1=O,–,"inconclusive [inhibitor, partial curve]"
CC(=O)N(CN1C(=O)CCC1=O)c1cccc(Cl)c1,–,inactive
CCc1ncc(CN2CCCC(C(=O)Nc3cccc(-c4cccc(C)c4)c3)C2)cn1 (stereo unspecified),–,"inconclusive [inhibitor, single point]"
O=C(NC1CCCC1)C(c1ccncc1)N(C(=O)c1csnn1)C1CCCC1 (stereo unspecified),–,inactive
Cc1nc(N2CCC(C)CC2)c2nnn(Cc3ccccc3)c2n1,–,"inconclusive [inhibitor, single point]"
CCn1cc(CN2CCc3c([nH]c4ccccc34)C2c2cccc(O)c2)c(C)n1 (stereo unspecified),–,"inconclusive [inhibitor, single point]"
N#CC1(NC(=O)COC(=O)c2ccc(Cl)nc2)CCCCC1,–,inactive
COc1cc(OC)c(NC(=O)c2cc3c(s2)-c2ccc(Cl)cc2SC3)cc1Cl,–,inactive
N#CCN(CC#N)C(=O)C1c2ccccc2Oc2ccccc21,–,"inconclusive [inhibitor, single point]"
O=C(c1cc(COc2ccc(F)cc2F)on1)N1CCN(C2CCCC2)C(=O)C1,–,"inconclusive [inhibitor, single point]"
Cc1ccc(C(=O)O)cc1NC(=O)CSc1ncnc2sc3c(c12)CCC3,–,inactive
COc1ccc(C)cc1S(=O)(=O)Nc1cccc(-c2ccc(N3CCC(C)CC3)nn2)c1,–,"inconclusive [inhibitor, single point]"
CC1CCN(CC(=O)Nc2ccc(Cl)cc2[N+](=O)[O-])CC1,–,"inconclusive [inhibitor, partial curve]"
Cc1cccc(NC(=S)N(CCCN2CCOCC2)C(C)c2cc3ccccc3o2)c1C (stereo unspecified),–,inactive
COc1cccc(C(=O)Oc2ccc3c(C)cc(=O)oc3c2C(C)=O)c1,–,inactive
Cc1ccccc1S(=O)(=O)Nc1nc2ccccc2nc1N1CCc2ccccc2C1,–,"inconclusive [inhibitor, partial curve]"
CCC1CN(C(=O)N2CCC(C(=O)NCc3cc(OC)ccc3OC)CC2)c2ccccc2O1 (stereo unspecified),–,active: 18.4 µM
CCOC(=O)C1CCN(C(=O)CN2C(=O)c3ccccc3S2(=O)=O)CC1,–,inactive
CN(C)CCNC(=O)c1cccc(-c2cccc3nncn23)c1,–,inactive

Structure (SMILES),"activity change, negative = growth inhibition",Potency
CCOC(=O)c1cc(S(=O)(=O)Nc2ccc(OC(F)(F)F)cc2)[nH]n1,–,inactive
COc1ccccc1NC(=O)c1ccc(NC(=O)CN2CCCCC2)cc1,–,"inconclusive [inhibitor, single point]"
O=C(NCCc1ccccc1)C1CCCN(S(=O)(=O)c2cccc3nonc23)C1 (stereo unspecified),–,"inconclusive [inhibitor, single point]"
Cn1c(C(=O)NCc2ccc(F)cc2)cc2cc(S(=O)(=O)N3CCCCC3)ccc21,–,active: 11.6 µM
Cc1ccc(C)c(NC(=O)C2CC(O)CN2C(=O)Oc2ccccc2)c1 (stereo unspecified),–,inactive
CC1SCC(NC(=O)c2cccc(Cl)c2)CS1 (stereo unspecified),–,active: 11.6 µM
Cc1cccc2nc(CSC(=N)N)c(Br)n12,–,"inconclusive [inhibitor, single point]"
COC(=O)c1cccc(C(=O)Nc2ccc(C)cc2Br)n1,–,"inconclusive [inhibitor, partial curve]"
Cc1ccc(NC(=O)C2(C)CCN2C(=O)Cc2ccccc2Cl)cc1C (stereo unspecified),–,"inconclusive [inhibitor, single point]"
COc1ccc(CC(N)c2csc(NC(=O)NC(c3ccccc3)c3ccccc3)n2)cc1 (stereo unspecified),–,"inconclusive [inhibitor, single point]"
CN1CCN(c2ncc3nc(-c4cccs4)c(=O)n(CCC#N)c3n2)CC1,–,"inconclusive [inhibitor, single point]"
O=C(O)/C=C/C(=O)Nc1ccc(Cl)cc1C(=O)c1ccccc1,–,"inconclusive [inhibitor, single point]"
Cc1cccc2cc3c(nc12)SC(=NCC1CCCO1)N(Cc1ccco1)C3 (stereo unspecified),–,active: 23.1 µM
Nc1c(S(=O)(=O)c2cccs2)c2nc3ccccc3nc2n1/N=C/c1cccc(O)c1,–,"inconclusive [inhibitor, single point]"
Cc1cccn2c(Nc3ccc4c(c3)OCCO4)c(-c3ccc(Br)o3)nc12,–,"inconclusive [inhibitor, single point]"
COc1ccc(-c2cc3ccc(O)c(CN4CCN(CCO)CC4)c3oc2=O)cc1OC,inconclusive: -31.7% [inhibitor],–
O=C(c1cccc(OC2CCN(Cc3cc(F)cc(F)c3)CC2)c1)N1CCCC1,–,"inconclusive [inhibitor, single point]"
CC(C)(C)n1nnnc1C(c1ccccc1)N1CCN(C(=O)C2CCCO2)CC1 (stereo unspecified),–,inactive
C/C(Cc1ccccc1)=N\NC(=O)CNC(=O)c1ccccc1Br,–,inactive
Cc1nnc2sc(SCC(=O)N3CCCCC3)nn2c1=O,–,inactive
COc1cccc(-c2cccc(-c3nc(C(=O)Nc4ccc(-c5ccccc5)cc4)cc4c3[C@H](CCO)N(S(=O)C(C)(C)C)C4)c2)c1 (stereo partly specified),–,"inconclusive [inhibitor, single point]"
CCN(C(=O)Cn1c(SCC(=O)NCc2ccccc2)nc2ccccc21)c1cccc(C)c1,–,"inconclusive [inhibitor, single point]"
O=C(CN1C(=O)CSc2ccc(C(F)(F)F)cc21)Nc1ccccc1,–,"inconclusive [inhibitor, single point]"
